Among all 48,000 compounds or so, about 450 (0.94%) were called active. Not shown: some 19% with an inconclusive outcome. The call rests on the fitted dose curve; in most records, active means well fitted inhibition curve with a large enough effect; inconclusive means small, poorly fitted or top-dose-only effect; inactive means no such curve, though single readings can be large or run the other way. This is one part of the list.
Assay: Primary qHTS for Identification of Small Molecule Inhibitors of Huntingtin Promoter Activity; further: nearly all actives have a fitted effect of over 50% in size
Conditions: HEK293 HTT promoter firefly luciferase reporter (activity 0% = vehicle and -100% = no light), 24 h; series mostly up to 57.5 µM; activity change, negative = inhibition: at the top concentration
Outline: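 Quantitative HTS used concentration series of up to 57.5 uM final on HEK293 luciferase reporter cells, 24 h at 37 degrees C. Readout was Dual-Glo firefly luminescence.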

Activity change, negative = inhibition, inactive:
CCN(CC)C(=O)c1c(-c2ccccc2)c(-c2ccccc2)nn(C)c1=O -2.45%, O=C(CSc1nnc(-c2cccs2)o1)Oc1ccccc1 -0.361%, O=C(CSc1nnc(-c2ccccc2)o1)c1cccc([N+](=O)[O-])c1 -1.21%, O=C(Cn1ncc2c3ccccc3n(Cc3ccc(Cl)cc3)c2c1=O)NCc1ccccn1 -0.112%, NC(=O)c1ccccc1NC(=O)c1ccc(-c2ccc(Br)cc2)o1 73.1%, CCN(CC)CCCNC(=O)c1ccc2c(=O)n(CCc3ccccc3)c(=O)[nH]c2c1 7.88%, CCOc1ccc(C(=O)Nc2ccc3nc(SCCOc4ccccc4)sc3c2)cc1 -3.93%, CC(=O)c1cccc(NC(=O)Cn2nc(C)n3cccc3c2=O)c1 -12.3%, CCC(Sc1nc2cc(OC)c(OC)cc2c2nc(-c3ccccc3)nn12)C(=O)Nc1cccc(C)c1 (configuration not stated) -1.01%, COc1ccc(NC(=O)C2=C(C)Nc3nc(SCc4ccccc4C)nn3C2c2cc(OC)c(O)c(OC)c2)cc1 (configuration not stated) -7.25%, Cc1ccc(CSc2nnc(CCNC(=O)OC(C)(C)C)o2)cc1 -18.5%, O=C(NCc1ccccc1Cl)c1ccc(CSCc2ccccc2Cl)o1 -17.9%, COc1ccc(OC)c(NC(=O)CSc2nnc3ccc4ccccc4n23)c1 -8.05%, CCc1ccc(NC(=O)CCn2nc(-c3ccccc3OC)c3c(C)cc(C)nc32)cc1 -17.4%, Cc1ccc(-c2nnc(Nc3cccc(O)c3)c3ccccc23)cc1S(=O)(=O)N1CCOCC1 1.03%, COc1ccc(-c2noc(CC(=O)Nc3ccc(F)cc3F)n2)cc1 -6.7%, COc1ccccc1OC(C)C(=O)Nc1ccc(-c2nc3ccccc3s2)cc1 (configuration not stated) 44.8%, COc1ccc(NC(=O)CCn2c(=O)c3cccn3c3cccnc32)c(OC)c1 6.78%, CCC(C(=O)NCc1ccccc1)n1nc(C)c2sc3ccccc3c2c1=O (configuration not stated) -9.12%, CN(Cc1ccccc1)C(=O)Nc1ccc2c(c1)N(C)C(=O)c1ccccc1S2 -23.8%, COc1ccc(-c2cc(C(=O)OC(C)C(=O)c3ccccc3)c3cccc(Cl)c3n2)cc1 (configuration not stated) 12.5%, c1ccc(Nc2c(-c3c[nH]c4ccccc34)nc3ccccn23)cc1 34%, CC(C)Nc1ccc(-c2nc(-c3ccco3)no2)cc1[N+](=O)[O-] 1.46%, CC(C)CCOC(=O)c1ccc(N(C)C)cc1 38.5%, Cc1ccc2nc(N3CCC(C(=O)N4CCN(c5cccc(Cl)c5)CC4)CC3)[nH]c2c1 -18.1%, CCOCCCNC(=O)C(c1ccc(C)cc1)N(Cc1ccc2c(c1)OCO2)C(=O)c1ccc(NC(C)=O)cc1 (configuration not stated) 6.71%, CCC(C)NC(=O)c1ccccc1NC(=O)CN1C(=O)c2cccc3cccc1c23 (configuration not stated) -14.3%, COc1cc2cc(CNc3ccc(C)cc3)c(=O)n(CC(=O)Nc3ccc(F)cc3F)c2cc1OC 34.2%, CC(C)NC(=O)CN1C(=O)COc2ccc(S(=O)(=O)N3CCCCCC3)cc21 -15.6%, COc1cc(C(=O)NCC(c2cccs2)S(=O)(=O)c2ccc(F)cc2)cc(OC)c1OC (configuration not stated) -21.3%, Cc1cccc(OCC(=O)Nc2ccc(Cl)c(-c3nc4ncccc4o3)c2)c1C -9.97%, CC1CC(OC(=O)C(O)c2ccccc2)CC(C)(C)N1C (configuration not stated) 6.35%, Cc1cccc(NC(=O)c2nnn(CC(=O)Nc3ccc(C(C)C)cc3)c2N)c1C -5.97%, CCC(=O)N1CCc2cc(Br)cc(S(=O)(=O)CCC(=O)NCc3ccc(Cl)cc3)c21 -13.3%, CCOc1ccccc1NC(=O)CN(C)S(=O)(=O)c1ccc2nc(C)sc2c1 -14.7%, CSC1=NC2(CCN(C(=O)NC3CCCCC3)CC2)N=C1c1ccc(C)c(C)c1 -20.4% [at 11.5 µM], Cc1ccc(CNC(=O)CC(C)S(=O)(=O)c2cc3c(cc2C)NC(=O)CO3)cc1 (configuration not stated) -6.04%, Cc1ccc(NC(=O)CCc2nnc3n(C)c(=O)c4sccc4n23)cc1C -1.8%, CC(C)Oc1ccc(C(=O)N(Cc2ccco2)c2ccccn2)cc1 22.7%, Cc1ccc(C)c(NC(=O)CN2C(=O)C(C)(C)c3ccccc32)c1 -10.9%, COc1ccc(Br)cc1CNC(=O)c1cc2n(n1)CCCN(Cc1ccc(C)cc1)C2=O -30.1%, COC(=O)c1scc(-c2ccc(C)cc2)c1S(=O)(=O)N1CCN(c2cccc(OC)c2)CC1 -26.6%, CCc1nnc(SC(CC)C(=O)Nc2cccc(OC)c2)c2cc3oc(C)cc3n12 (configuration not stated) -1.01%, Cc1ccc(Sc2c(C)nn(C(C)(C)C)c2OC(=O)C(C)(C)C)cc1 -10.5%, CCOC(=O)c1ccc(NC(=O)CC2C(=O)OCCN2CC)cc1 (configuration not stated) -0.861%, CCN(c1ccccc1)c1nnc(NC(=O)Nc2ccccc2F)s1 -29.8%, Cc1c2cnn(CC(=O)Nc3cccc(C(F)(F)F)c3)c(=O)c2c(C)n1Cc1ccccc1Cl -27%, CCOC(=O)N1CCc2c(sc3c2c(=O)n(-c2ccc(CC)cc2)c(=O)n3CC(=O)c2ccc(F)cc2)C1 -4.83%, COc1ccccc1/C=C/c1nc(C#N)c(N(C)C)o1 78.8%, CCN(C(=O)CSc1nc2ccccc2n1Cc1cc(C)ccc1C)c1ccccc1 0%, Cc1c2cnn(CC(=O)NC(C)C)c(=O)c2c(C)n1Cc1ccccc1Cl 24.3%, Cc1nnc(NS(=O)(=O)c2ccc(N)cc2)s1, O=C(Cn1nc(-c2ccc(Cl)cc2)ccc1=O)NCc1ccccc1Cl -8.48%, COc1cccc(N2CCN(C3C(=O)c4ccccc4N3C(C)=O)CC2)c1 (configuration not stated) -22.5%, COc1cccc(C2C(C(=O)Nc3ccc(C)cc3C)=C(C)Nc3c(C(=O)Nc4cccc(C)c4)cnn32)c1OC (configuration not stated) -10.5%, COc1ccc(N2CCN(C(=O)c3ccc(-c4nc(COc5ccccc5)c(C)o4)cc3)CC2)cc1 -7.75%, Cc1cccc(OCC(=O)N(Cc2sccc2C)C2CCS(=O)(=O)C2)c1 (configuration not stated) -14.6%, CCCNC(=O)C1CCC(Cn2c(=O)c3sccc3n(CC(=O)N3CCC(C)CC3)c2=O)CC1 (configuration not stated) 1.22%, Cc1ccccc1OCCn1c(CCNC(=O)C(C)(C)C)nc2ccccc21 3.58%, CC1=C(c2ccc(C)c(C)c2)S(=O)(=O)N=C1N1CCC(C(=O)NCc2ccc(C)o2)CC1 -24.3%, CC(C)(C)OC(=O)N1CCC(c2c(C(=O)N3CCc4ccccc4C3)cnn2-c2ccc(F)cc2)CC1 -18.8%, CC(NC(=O)CCCn1c(=O)c2cccn2c2cccnc21)c1ccccc1 (configuration not stated) 1.03%

— PubChem BioAssay AID1508623 (National Center for Advancing Translational Sciences (NCATS), 2021)
